Source: the BET-seq Pho4 binding data (Le et al. 2018)
This is one part of the list. Values were computed here from the reads of four pooled replicates and scatter widely.

Target: T1, Pho4 (S. cerevisiae) (UniProt P07270)
T1 sequence: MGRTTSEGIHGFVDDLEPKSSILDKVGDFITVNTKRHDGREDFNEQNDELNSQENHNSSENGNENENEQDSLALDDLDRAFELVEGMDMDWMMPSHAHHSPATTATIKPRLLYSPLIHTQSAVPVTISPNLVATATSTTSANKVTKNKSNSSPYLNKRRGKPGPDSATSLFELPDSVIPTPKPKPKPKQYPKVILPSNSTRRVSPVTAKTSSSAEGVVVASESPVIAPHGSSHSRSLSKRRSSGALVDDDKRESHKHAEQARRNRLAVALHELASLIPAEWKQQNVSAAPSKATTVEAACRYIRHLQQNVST
Experiment: relative binding free energy (BET-seq); higher = weaker binding
Conditions: reference: library average

Sequence | relative binding free energy [kcal/mol]
CGTTGCACGTGTTGAT | 0.06
TTTGCCACGTGGGATA | -0.19
AGAGACACGTGTATTG | 0.02
ATTGGCACGTGCAGTG | -0.21
TTACGCACGTGTTGTG | -0.17
TAGGACACGTGGAGGT | 0.03
TTATACACGTGGTCAG | -0.03
GGTAACACGTGGTATA | -0.11
GTGAACACGTGTCGGG | 0.03
ATCTTCACGTGGTAGA | 0.37
AGGTGCACGTGGTGAC | -0.24
GCTGTCACGTGTTAGG | 0.07
ATGGACACGTGGTTGG | 0.04
GTAGTCACGTGAAGGG | 0.31
TATTTCACGTGTTTCA | 0.18
CAGTTCACGTGGTGTT | 0.23
CTGATCACGTGTGTTT | 0.15
TTTTCCACGTGGTTTG | 0
AGTGCCACGTGTAAGG | 0.01
GTGGGCACGTGTGTAA | -0.08
TTCATCACGTGTAGGA | 0.19
AAACTCACGTGGGGTG | 0.05
TGTTGCACGTGCGTCG | -0.1
AGTCGCACGTGGGATG | -0.17
TGTAGCACGTGCGAGT | -0.02
GGCGTCACGTGTATGC | 0.22

Sequence | relative binding free energy [kcal/mol]
CGTTTCACGTGATTGT | 0.33
ATTAGCACGTGTATTA | -0.15
GGTGACACGTGTGTGC | 0.08
TGGGACACGTGTTCAT | 0.03
AGGGTCACGTGATAAG | 0.11
ATTGGCACGTGGATGT | -0.1
AGGTGCACGTGAACGT | 0.29
TTCGGCACGTGAGATG | 0.13
TGCTTCACGTGTAAGT | 0.18
CGGATCACGTGGAGGG | 0.29
GCGGTCACGTGGGTTT | -0.07
CCTGTCACGTGGGTGT | -0.21
ATTTGCACGTGTCTGT | 0.02
GGCTGCACGTGTTCGG | 0.07
TATCTCACGTGGTTGT | 0.08
AGCTGCACGTGGGGTT | -0.23
AGTACCACGTGGGCGG | -0.29
ATTTACACGTGCTGTT | -0.01
GGTTCCACGTGTCTGT | 0.12
TTGAGCACGTGATTTG | 0.08
TATTTCACGTGGTTGG | 0.31
ATTGTCACGTGGGAGG | 0.03
TTTTTCACGTGTTAAG | 0.29
ATTCCCACGTGGGGGG | -0.29
CCGTGCACGTGGGAGG | -0.01
TTTTTCACGTGCCATT | 0.23

Sequence | relative binding free energy [kcal/mol]
CAGGACACGTGATTGT | 0.18
TTGTACACGTGGCAAT | 0
CTCGTCACGTGGATGT | 0.01
TTTGTCACGTGCGTTC | 0.19
GAGGTCACGTGGGGGG | 0.07
CATGGCACGTGCTGTT | -0.2
CGATTCACGTGTATTG | 0.16
GGGCACACGTGGTGGT | 0.03
GGTTCCACGTGGAGTG | -0.13
GAATGCACGTGTTGTC | 0.12
CATTGCACGTGTTTTA | 0.05
GCGTTCACGTGTGTCG | 0.3
AGTGTCACGTGCCGTT | -0.09
GTAATCACGTGTGCGG | 0.16
AGGCCCACGTGGGATG | -0.15
TATTGCACGTGTACAG | -0.08
TGATGCACGTGCGAGG | -0.1
GGCGTCACGTGGGTGT | -0.01
AGTGCCACGTGGGAGT | -0.25
ATTTTCACGTGCATTG | 0.29
GGTGCCACGTGGTGTC | -0.16
ATTAACACGTGGGTAA | -0.18
GCTAGCACGTGAGGTT | 0.2
TCCGTCACGTGGTTGG | -0.01
GATGTCACGTGATATT | 0.26
ATTGTCACGTGAAGGT | 0.24

Sequence | relative binding free energy [kcal/mol]
TAGTGCACGTGGGCAG | -0.22
GGCTGCACGTGCTGGT | -0.02
TGTCACACGTGCGGTT | 0.08
GGGTGCACGTGGCGCT | -0.23
TATTGCACGTGGTGCG | -0.09
TTACGCACGTGTGTGG | -0.11
GGATTCACGTGTGCGC | 0.3
TTAAGCACGTGTGCGT | 0.06
TTGAACACGTGCTAGG | 0.04
AATAGCACGTGGTGCG | -0.11
TGAGTCACGTGGTAAT | 0.18
TCTAGCACGTGGTATG | -0.21
AGGAGCACGTGTGGGG | -0.03
ATGGGCACGTGGCTTA | -0.16
CTTGGCACGTGGATTA | -0.07
CTAAGCACGTGATGGG | 0.09
AGTTGCACGTGATTGT | 0.13
TGAGGCACGTGCATGG | -0.27
TTTTACACGTGTTTTC | 0.09
TATTACACGTGATAGG | 0.18
TATAGCACGTGGGCGT | -0.14
TATATCACGTGTGGTT | 0.23
TCTTTCACGTGTCGGT | 0.26
CGATTCACGTGTTAGT | 0.23
TAAAGCACGTGGCTGG | -0.21
GATGTCACGTGGGGCA | -0.14

Sequence | relative binding free energy [kcal/mol]
CTTGGCACGTGTTTAA | 0.03
ATTAGCACGTGAAGGA | 0.21
TGGCCCACGTGGTGCG | -0.14
TCATGCACGTGTTGGA | -0.1
GGGGCCACGTGTAGGG | 0.02
TGTGTCACGTGGGGAT | -0.08
GTTTACACGTGTGCGA | 0.11
TTGGGCACGTGGATCA | -0.07
TATGTCACGTGTTCTA | 0
GTTTACACGTGCTTTG | 0.09
TCTTTCACGTGGTAGG | 0.18
CCGGTCACGTGGGGGT | -0.16
TGGTGCACGTGCGGGC | 0.03
GGTGTCACGTGTCATT | 0.02
TGAGGCACGTGTGGAC | -0.08
GGGTGCACGTGCGGTA | -0.09
GTGGTCACGTGCTAAG | 0.14
TAAATCACGTGGAGAT | 0.19
AAGAACACGTGAATGG | 0.44
CGGAGCACGTGTAGTT | -0.04
TGTGGCACGTGTCGCT | -0.07
TTGGTCACGTGGGGAC | 0.06
GGTGGCACGTGACTTA | 0.23
ATGGGCACGTGTATAA | -0.07
TAGTACACGTGTAAGT | 0.07
TTCGACACGTGTAAGG | 0.14

Sequence | relative binding free energy [kcal/mol]
GTGGACACGTGAAGTT | 0.37
CGTGGCACGTGATCGT | -0.05
CGTTGCACGTGGGCAT | -0.24
AGCAGCACGTGGGGTA | -0.2
TTAAACACGTGATGGA | 0.28
GTGTACACGTGTGAGT | 0.19
CAGATCACGTGGGGAG | -0.03
AATTACACGTGTCGTA | 0.3
ATTTGCACGTGTCTAT | 0.06
GGCTACACGTGTGCTG | 0.24
GGTTACACGTGGCGGT | 0.13
AATTACACGTGTTGAT | 0.15
GATAGCACGTGAGGTT | 0.15
TTAGCCACGTGGTAGG | -0.12
AATGTCACGTGAGTGT | 0.33
TTTGGCACGTGCCTTA | -0.15
TTTGGCACGTGGCCTG | -0.19
TGAAGCACGTGTACGG | 0.06
CGGTGCACGTGGGTCA | -0.28
AATTTCACGTGTAATG | 0.21
TACGTCACGTGATTAT | 0.19
GGTGGCACGTGGGTCA | -0.23
GGCGACACGTGCGTGG | -0.11
AGTTTCACGTGGGAGG | 0.22
AATGTCACGTGGTGTA | -0.05
GGACTCACGTGATAGG | 0.41

Sequence | relative binding free energy [kcal/mol]
TTCTTCACGTGTTCTA | 0.4
TAGTTCACGTGTCTTT | 0.15
TATGTCACGTGTCAAT | 0.11
TGGGACACGTGTTACT | 0.16
TTATCCACGTGTGCGT | 0
AGGGACACGTGGTCAA | 0.02
TGACACACGTGTGTGT | -0.04
ATTGCCACGTGCGGTG | -0.2
CCTGGCACGTGGGATG | -0.12
GGCTTCACGTGGAAAG | 0.4
ATAAACACGTGTGATT | 0.22
ACATACACGTGGATGT | 0.16
TCGGACACGTGAGTGT | 0.17
ATTGTCACGTGTGGGG | 0.15
AGGTTCACGTGCTTGT | 0.23
ATCGGCACGTGTGGGA | 0.02
GTGAACACGTGGTTGT | -0.02
GTAGGCACGTGCTTGA | -0.15
GGTTACACGTGGATTG | 0.09
AAATGCACGTGGTAGT | -0.07
ATATACACGTGAAGTG | 0.27
ATTGTCACGTGGCGGT | -0.05
GGTAGCACGTGGATTG | -0.04
GGTGCCACGTGAACGG | 0.16
AGGTGCACGTGGGGCA | -0.26
ACTAGCACGTGTGGGA | 0.06

Sequence | relative binding free energy [kcal/mol]
TTGCACACGTGCGTGT | -0.11
CGTGTCACGTGGTAGT | 0.06
AAATGCACGTGGGCTT | -0.26
GGATACACGTGGCGTT | 0.13
AACGTCACGTGGGGTA | -0.2
TGATTCACGTGCAATT | 0.24
CAAGGCACGTGACGGG | 0.01
ATAGCCACGTGTTGTT | -0.02
AATGTCACGTGATTCG | 0.21
TGAGCCACGTGCGGGG | -0.15
AGGTGCACGTGCGGGG | -0.1
GTCGACACGTGTTGGT | 0.1
AGGTGCACGTGCGTAT | -0.14
GGTATCACGTGTGGCA | 0.15
TGATTCACGTGGTACG | 0.26
TTTTGCACGTGGATAT | 0.09
GGGTACACGTGAAGTA | 0.3
TTGTTCACGTGTAAGC | 0.39
TTATTCACGTGAGTCG | 0.38
GTTTGCACGTGCAGTG | 0
ATGTGCACGTGGAATT | 0.14
TTGGCCACGTGAGCGG | 0.01
TAATGCACGTGTCGTG | -0.12
TTGGGCACGTGATTTT | 0.01
TACGTCACGTGGAGGA | 0.2
ATATTCACGTGCGTTA | 0.19

Sequence | relative binding free energy [kcal/mol]
TCAAGCACGTGTTGTA | -0.04
GTTGTCACGTGGTGCC | 0.05
TGTTGCACGTGCTTAG | -0.12
TGGTCCACGTGGAGAG | -0.01
GGGGCCACGTGTATAT | 0.01
TGGGCCACGTGGCTGA | -0.14
GAGCGCACGTGGGATG | -0.19
GCGCGCACGTGAGTTG | 0.15
ATGAGCACGTGGCTGG | -0.08
AAGCACACGTGTGGTG | 0.05
GGGGCCACGTGTTTTT | 0.03
GATTTCACGTGTTCGG | 0.3
TGATCCACGTGTGTGG | 0.06
ATGGTCACGTGGATAC | 0.25
ATGGACACGTGAGTCT | 0.32
TGAATCACGTGCAGTG | -0.01
AGATGCACGTGGAGGT | -0.02
GGGTACACGTGTAAGA | 0.23
AATCGCACGTGGTGTG | -0.16
TGGTTCACGTGGTCAA | 0.15
TGGGCCACGTGAGTAG | 0.19
TTTCGCACGTGTTGCG | -0.06
